The whole screen tested about 310,000 compounds, of which about 2,200 (0.71%) showed an effect of 50% or more. The effect is printed as a negative number. The list shows a part of the results.

In this test the target is human ether-à-go-go-related gene (hERG) potassium channel (human, UniProt Q12809). The experiment in a line: primary screen, population patch clamp on CHO cells stably expressing hERG.
human ether-à-go-go-related gene (hERG) potassium channel, sequence (Q12809 whole entry, looked up): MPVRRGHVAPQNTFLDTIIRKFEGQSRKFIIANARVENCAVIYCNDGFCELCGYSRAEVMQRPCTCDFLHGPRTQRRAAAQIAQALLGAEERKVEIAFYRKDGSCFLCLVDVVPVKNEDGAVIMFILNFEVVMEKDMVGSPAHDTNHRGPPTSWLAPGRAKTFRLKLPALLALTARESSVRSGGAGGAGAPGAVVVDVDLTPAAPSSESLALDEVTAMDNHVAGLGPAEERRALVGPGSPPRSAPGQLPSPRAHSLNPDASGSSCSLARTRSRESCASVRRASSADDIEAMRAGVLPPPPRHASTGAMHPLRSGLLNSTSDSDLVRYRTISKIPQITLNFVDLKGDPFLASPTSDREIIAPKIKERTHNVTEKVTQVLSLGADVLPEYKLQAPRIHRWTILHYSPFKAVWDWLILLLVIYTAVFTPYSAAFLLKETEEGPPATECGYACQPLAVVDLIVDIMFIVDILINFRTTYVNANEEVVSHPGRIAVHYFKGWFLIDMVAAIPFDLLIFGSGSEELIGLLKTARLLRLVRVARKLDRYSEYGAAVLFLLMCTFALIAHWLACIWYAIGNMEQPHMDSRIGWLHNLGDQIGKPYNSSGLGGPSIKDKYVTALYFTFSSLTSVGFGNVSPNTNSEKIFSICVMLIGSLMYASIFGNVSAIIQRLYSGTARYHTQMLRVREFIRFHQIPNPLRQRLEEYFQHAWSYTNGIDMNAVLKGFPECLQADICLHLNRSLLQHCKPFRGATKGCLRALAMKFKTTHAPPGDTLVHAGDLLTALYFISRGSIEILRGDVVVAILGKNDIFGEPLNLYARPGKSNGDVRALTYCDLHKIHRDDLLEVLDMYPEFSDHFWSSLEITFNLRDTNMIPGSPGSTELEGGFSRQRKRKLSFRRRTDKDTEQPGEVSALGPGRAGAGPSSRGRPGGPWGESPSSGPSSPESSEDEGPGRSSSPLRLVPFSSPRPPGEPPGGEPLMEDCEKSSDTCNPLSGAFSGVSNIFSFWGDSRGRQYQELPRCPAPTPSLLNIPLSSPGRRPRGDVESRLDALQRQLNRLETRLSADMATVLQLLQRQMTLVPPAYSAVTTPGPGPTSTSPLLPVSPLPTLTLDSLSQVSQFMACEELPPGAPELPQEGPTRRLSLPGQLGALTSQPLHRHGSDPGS
`COC(=O)NCC(C)OC(=O)Nc1cccc(Cl)c1` (stereo not shown): the “hERG current change (%, negative = inhibition) at 1uM” value came to 4.62%.
On to `COC(=O)CSc1[nH]c2ccc(Br)cc2c1[N+](=O)[O-]`, for which the “hERG current change (%, negative = inhibition) at 1uM” value was 16%.
In the case of `CCOC(=O)CSc1cc(C)c(C#N)c2nc3ccccc3n12`, the “hERG current change (%, negative = inhibition) at 1uM” value turned out to be 2.01%.
Next, `CCNS(=O)(=O)c1ccc(CCC(=O)Nc2ccccc2C(=O)OC)cc1`: 6.24%; `COc1ccc(OC)c(N(CC(=O)NCC2CCCO2)S(=O)(=O)c2ccccc2)c1` (stereo not shown): 8.63%.
Under `O=C(COC(=O)c1cc(-c2ccncc2)nc2ccccc12)Nc1ccc2c(c1)OCO2` stands 9.37%.
As to `O=C(COC(=O)c1nc(Cl)ccc1Cl)NCc1ccc(Cl)cc1`, the “hERG current change (%, negative = inhibition) at 1uM” value amounted to 10.4%.
Turning to `COc1ccc(NC(=O)C2CCN(C(=O)c3ccccc3)CC2)c(OC)c1`, the “hERG current change (%, negative = inhibition) at 1uM” value is on record as 6.42%.
`CCOC(=O)c1ccc(NC(=O)c2nc[nH]c2C(=O)N[C@H](C)c2ccccc2)cc1`: the “hERG current change (%, negative = inhibition) at 1uM” value is 14.7%.
As for `COc1ccc(-n2c(CN3CCN(c4ccccn4)CC3)nc3ccc([N+](=O)[O-])cc3c2=O)c(OC)c1`, the “hERG current change (%, negative = inhibition) at 1uM” value is on record as -6.09%.
Next, `Cc1onc(-c2c(F)cccc2Cl)c1C(=O)Nc1cccc(S(=O)(=O)NCc2ccco2)c1`: 8.33%; `Cc1cccc(NC(=O)c2cccc(NS(=O)(=O)c3ccc(Cl)cc3)c2)c1`: 11.8%; `CCCCN(CCCC)CC(O)CN(c1cc([N+](=O)[O-])ccc1OC)S(=O)(=O)c1ccccc1` (stereo not shown): -27.9%.
Under `Cc1ccsc1/C=N/NC(=O)c1ccc2ccccc2c1` stands 24.1%; under `O=C1C2C3C=CC(C3)C2C(=O)N1c1cccc2cccnc12` (stereo not shown), 2.08%; under `CC1=C(C(=O)OCC(Br)(Br)Br)C(c2cccc([N+](=O)[O-])c2)NC(=O)N1CCCC(=O)O` (stereo not shown), 7.23%.
Under `COc1cc2nc(CC(C)C)n(NC(=O)c3ccccc3Br)c(=O)c2cc1OC` stands 13.7%.
With `CC(C)NC(=O)c1onc(CSc2nc3ccccc3[nH]2)c1C(=O)NC(C)C`, the “hERG current change (%, negative = inhibition) at 1uM” value was determined as 6%.
Under `CCn1c(SCC(=O)N2CCCCC2C)nnc1-c1ccco1` (stereo not shown) stands 4.3%.
For the compound `COc1ccc(NC(=O)O/N=C/c2ccccc2)cc1`, the “hERG current change (%, negative = inhibition) at 1uM” value was found to be 14.8%.
`CC(C)c1c(O)nc(SCC(=O)N2CCCCC2)[nH]c1=O`: the “hERG current change (%, negative = inhibition) at 1uM” value was found to be 4.87%.
`Cc1ccccc1S(=O)(=O)/N=C(/c1ccccc1)N(C)C`: the “hERG current change (%, negative = inhibition) at 1uM” value is given as 7.96%.
For the compound `O=[N+]([O-])c1ccc2nc(-c3ccccc3)oc2c1`, the “hERG current change (%, negative = inhibition) at 1uM” value is reported as 4.95%.
Turning to `CC1CN(CCCSc2ccc(Cl)cc2)CC(C)O1.O=C(O)C(=O)O` (stereo not shown), the “hERG current change (%, negative = inhibition) at 1uM” value is listed as -5.42%.
Regarding `CN1CCC(O)(c2ccccc2)C(C(=O)c2ccccc2)C1` (stereo not shown), the “hERG current change (%, negative = inhibition) at 1uM” value amounted to 11.4%.
Next, `COc1ccc(N2CCN(S(=O)(=O)c3c(C(=O)N4CCOCC4)c(C)n(C)c3C)CC2)cc1`: 10.5%.
Turning to `CCOc1ccccc1NC(=O)COC(=O)c1ccc2ccccc2n1`, the “hERG current change (%, negative = inhibition) at 1uM” value was determined as 18.6%.
In the case of `CCOC(=O)N1CCN(C(=O)Cc2ccc(-n3c(=S)[nH]c4ccccc4c3=O)cc2)CC1`, the “hERG current change (%, negative = inhibition) at 1uM” value turned out to be 10.1%.
Under `Cc1ccc(N2C(=O)CC(N3CCN/C3=C3\CC/C(=C\c4ccccc4)C3=O)C2=O)cc1` (stereo not shown) stands 6.97%; under `O=C(CCSCc1cccc(Cl)c1)NCCc1ccccc1`, 4.92%; under `CC(C)CNC(=O)NC(=O)COc1c(F)c(F)cc(F)c1F`, 7.97%.
As to `CCC(=O)Nc1ccc(C(=O)NNC(=O)c2cccc(C)c2)cc1`, the “hERG current change (%, negative = inhibition) at 1uM” value is reported as 2.55%.
For `CCCn1c(C)cc(-c2csc(NC(=O)CCc3nc4ccccc4c(=O)[nH]3)n2)c1C`, the “hERG current change (%, negative = inhibition) at 1uM” value is on record as -5.66%.
Under `CC(=O)Nc1ccc(Sc2ccccc2C(=O)N2CCCC2)cn1` stands 1.73%; under `O=c1oc(/C=C/c2ccco2)nc2sc3c(c12)CCC3`, 10.8%.
As for `CCOC(=O)c1c(C)n(C)c2ccc(OCC(O)CN3C(=O)c4ccccc4S3(=O)=O)cc12` (stereo not shown), the “hERG current change (%, negative = inhibition) at 1uM” value came to 0.722%.
Regarding `CN1CCN(c2ccc(NC(=O)COc3cccc4ccccc34)cc2)CC1`, the “hERG current change (%, negative = inhibition) at 1uM” value was -27%.
As to `COc1c(F)c(F)c(C(=O)O)c(Nc2ccc(C)cc2)c1F`, the “hERG current change (%, negative = inhibition) at 1uM” value was 12.6%.
Under `CCN(c1ccccc1)S(=O)(=O)c1ccc(OC)c(OC)c1` stands 11.6%; under `O=C(O)C1C2C=CC(O2)C1C(=O)Nc1ccc2c(c1)OCCO2` (stereo not shown), 17.1%.
Consider `CC1(C)CC(NC(=O)C23CCC(C)(C(=O)C2)C3(C)C)CC(C)(C)N1` (stereo not shown), for which the “hERG current change (%, negative = inhibition) at 1uM” value turned out to be 3.49%.
Take `C[C@@H]1C[C@H]2[C@@H]3CCC4=CC(=O)C=C[C@]4(C)[C@@]3(Cl)[C@@H](O)C[C@]2(C)[C@@]1(OC(=O)c1ccco1)C(=O)CCl`: the “hERG current change (%, negative = inhibition) at 1uM” value is 12.2%.
Take `Cc1ccccc1N1CCN(C2=NC(=O)/C(=C/c3cn[nH]c3-c3ccccc3)S2)CC1`: the “hERG current change (%, negative = inhibition) at 1uM” value is 13.7%.
Take `CCOc1ccccc1CN1CCCC(C(=O)c2ccc(OC)c(OC)c2)C1` (stereo not shown): the “hERG current change (%, negative = inhibition) at 1uM” value is given as -51.1%.
Regarding `O=C(NCCCN1CCOCC1)c1ccc(Sc2ccc(Br)cc2)c([N+](=O)[O-])c1`, the “hERG current change (%, negative = inhibition) at 1uM” value is listed as 6.03%.
For the compound `CC(C)CCN(C(=O)c1csnn1)C(C(=O)NC1CCCCC1)c1ccc(F)cc1` (stereo not shown), the “hERG current change (%, negative = inhibition) at 1uM” value is on record as 13.5%.
`CCN(C(=O)COC(=O)c1cccnc1SC)C1CCCCC1`: the “hERG current change (%, negative = inhibition) at 1uM” value was determined as 3.88%.
With `Cc1nc([N+](=O)[O-])cn1-c1nc2ccccn2c1[N+](=O)[O-]`, the “hERG current change (%, negative = inhibition) at 1uM” value is listed as 9.1%.
For `O=c1[nH]c(=S)n(-c2ccc(F)cc2)c(O)c1/C=N/N1CCOCC1`, the “hERG current change (%, negative = inhibition) at 1uM” value is 15.6%.
With `O=C(O)/C=C/C(=O)Nc1ccc(C2(c3ccc(NC(=O)/C=C/C(=O)O)cc3)c3ccccc3-c3ccccc32)cc1`, the “hERG current change (%, negative = inhibition) at 1uM” value came out at 15.1%.
`COc1ccc(OC)c(Nc2ccc(C(=O)O)cc2[N+](=O)[O-])c1`: the “hERG current change (%, negative = inhibition) at 1uM” value was found to be 6.05%.
As to `CN(CCCC(=O)O)c1ccc(N=Nc2ccc([N+](=O)[O-])cc2)cc1`, the “hERG current change (%, negative = inhibition) at 1uM” value was found to be 8.9%.
With `CC(=O)N1c2ccc(F)c(F)c2C[C@H]1C`, the “hERG current change (%, negative = inhibition) at 1uM” value is reported as 15.6%.
For the compound `CCN(CC)S(=O)(=O)c1ccc(NC(=O)CSc2cccc[n+]2[O-])cc1`, the “hERG current change (%, negative = inhibition) at 1uM” value came out at 6.75%.
For the compound `COC(c1ccccc1)c1nnc(CCC(=O)N2CCN(CCOc3ccccc3)CC2)o1` (stereo not shown), the “hERG current change (%, negative = inhibition) at 1uM” value amounted to 13.5%.
In the case of `Cc1cc(C)nc(-n2ncc3c2CC(c2ccccc2C)CC3=O)n1` (stereo not shown), the “hERG current change (%, negative = inhibition) at 1uM” value was determined as 9.18%.
For `Cc1cccc(N2CCC(NCc3c(C(=O)N4CCCCC4)nc4c(C)cccn34)CC2)c1`, the “hERG current change (%, negative = inhibition) at 1uM” value is recorded as -0.865%.
Take `CCOc1ccc(-c2nn(-c3ccccc3)cc2/C=C2\SC(N)=NC2=O)cc1C`: the “hERG current change (%, negative = inhibition) at 1uM” value was found to be 0.077%.
Under `Cn1c(=O)c2c(nc(NCCCN3CCOCC3)n2Cc2cccc(Cl)c2)n(C)c1=O` stands 0.343%; under `C=CCCN(C(CC(C)C)C(=O)OC)S(=O)(=O)c1ccccc1Br` (stereo not shown), 13.4%.
With `CCC(=O)NC(=S)Nc1cccc(NC(=O)c2ccccc2Cl)c1`, the “hERG current change (%, negative = inhibition) at 1uM” value was 3.89%.
Under `Cc1cccc(C#N)c1` stands 5.21%; under `Cc1nc(N2CCN(C)CC2)c2sc(=S)n(C)c2n1`, 6.99%; under `CN(C)c1ccc(/C=N/NC(=O)c2nnn(-c3nonc3N)c2CN(C)c2ccccc2)cc1`, 4.39%.
Consider `O=C(CN1CCCCC1)Nc1nc(-c2ccc(Cl)cc2)cs1`, for which the “hERG current change (%, negative = inhibition) at 1uM” value worked out at 10.7%.
Turning to `COc1cc2c(cc1O)C[C@H]1c3c(cc(O)c(OC)c3-2)CCN1C`, the “hERG current change (%, negative = inhibition) at 1uM” value is -44.4%.
For the compound `CCOC(=O)Cc1csc(NC(=O)c2csc3c2CCCC3)n1`, the “hERG current change (%, negative = inhibition) at 1uM” value is -6.45%.
On to `COc1ccc(CNC(=O)C(NS(=O)(=O)c2cccc3nsnc23)C(C)C)cc1` (stereo not shown), for which the “hERG current change (%, negative = inhibition) at 1uM” value was 13.7%.
With `COC(=O)CCCC1=CC2=CC(=O)C(C)(OC(=O)c3cccs3)C(=O)C2=CN1CCN1CCOCC1` (stereo not shown), the “hERG current change (%, negative = inhibition) at 1uM” value is -1.92%.
Take `O=C(c1ccccc1F)N1CCC2(CC1)OCCO2`: the “hERG current change (%, negative = inhibition) at 1uM” value amounted to 23.5%.
Consider `O=C(NC1CCCCC1)C1CCN(C(=O)c2ccc(Cl)cc2)CC1`, for which the “hERG current change (%, negative = inhibition) at 1uM” value is 5.16%.
In the case of `C=CCNC(=O)COC(=O)c1c2c(nc3ccccc13)CCC2`, the “hERG current change (%, negative = inhibition) at 1uM” value stood at 15.5%.
Take `CCOc1ccc2nc(NCCNC(=O)Nc3ccccc3)c(C#N)cc2c1`: the “hERG current change (%, negative = inhibition) at 1uM” value amounted to 8.2%.
Regarding `O=C(c1ccc(N2CCCC2=O)cc1)N1CCN(c2ccccc2Cl)CC1`, the “hERG current change (%, negative = inhibition) at 1uM” value was 7.7%.
Next, `O=C(CCCSc1nc(-c2ccco2)cc(C(F)(F)F)n1)Nc1ccc2c(c1)OCO2`: 14.8%; `O=C(N/N=C/c1ccc(O)cc1O)NC12CC3CC(CC(C3)C1)C2`: 8.95%.
Take `Cc1nn(C)c(Cl)c1CN1CCCC(CO)(Cc2ccccc2)C1` (stereo not shown): the “hERG current change (%, negative = inhibition) at 1uM” value is given as 10.6%.
Turning to `COc1cc(C(=O)N/N=C/c2ccc(OC)c(CN3CCN(c4ccc(F)cc4)CC3)c2)ccc1O`, the “hERG current change (%, negative = inhibition) at 1uM” value is on record as -52.4%.
For `CCc1ccccc1NC(=O)CN(C)Cc1nc(N)nc(Nc2ccccc2C)n1`, the “hERG current change (%, negative = inhibition) at 1uM” value is on record as -0.11%.
For the compound `CCn1c(C)cc(/C=C2\NC(=O)N(CC(=O)Nc3cccc(C)c3)C2=O)c1C`, the “hERG current change (%, negative = inhibition) at 1uM” value is listed as -2.56%.
For `Cc1nc2ccccc2c(=O)n1NCc1cccs1`, the “hERG current change (%, negative = inhibition) at 1uM” value was 13.1%.
Regarding `CSc1ccccc1OCc1cc(C(=O)N(C)Cc2ccc3nsnc3c2)no1`, the “hERG current change (%, negative = inhibition) at 1uM” value turned out to be 6.87%.
Turning to `COc1cc(CNC(=O)CCCC/C=C/C(C)C)ccc1O`, the “hERG current change (%, negative = inhibition) at 1uM” value came to 11.8%.
In the case of `COc1ccccc1NC(=O)C(C)OC(=O)CCC1CCCCC1` (stereo not shown), the “hERG current change (%, negative = inhibition) at 1uM” value was 0.267%.
Next, `CCOC(=O)C1C(c2cccs2)NC(=O)N(C)C1(O)C(F)(F)F` (stereo not shown): 12.1%.

(Values after paper PMC4336329 (PLoS ONE, 2015).)
